Data on ten molecules can be found in publication PMC6648895.

Sequences of proteins named here, by UniProt entry; tags and fusion partners are left off.
UniProt P04650: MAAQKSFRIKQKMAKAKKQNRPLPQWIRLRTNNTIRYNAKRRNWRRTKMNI
UniProt P0CX27: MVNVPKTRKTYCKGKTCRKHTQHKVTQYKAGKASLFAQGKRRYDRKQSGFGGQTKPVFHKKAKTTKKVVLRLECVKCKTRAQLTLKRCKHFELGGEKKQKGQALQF

These are yes or no findings as the source states them, for the method shown. For some assays here: Binding seen in cells or lysates may run through a third protein. Some entries that bind do so weakly or less than the wild type. For some assays here: Tags and fused reporters may be left off the sequences shown.

The target in assay [1] is T1, Rps6, Gal4 DNA-binding domain fusion (full-length) (S. cerevisiae) (UniProt P0CX37).
T1 sequence: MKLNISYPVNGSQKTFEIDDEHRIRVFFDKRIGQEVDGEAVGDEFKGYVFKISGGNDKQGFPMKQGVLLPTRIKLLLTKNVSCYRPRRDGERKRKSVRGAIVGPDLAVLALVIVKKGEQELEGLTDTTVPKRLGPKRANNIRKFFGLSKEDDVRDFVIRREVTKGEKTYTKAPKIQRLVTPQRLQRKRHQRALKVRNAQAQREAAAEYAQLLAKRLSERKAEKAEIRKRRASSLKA
Briefly: two-hybrid; reporter strain PJ69-4A; bait fused to Gal4 DNA-binding domain (c-Myc), prey fused to Gal4 activation domain (HA); HIS3 reporter for weak, ADE2 reporter for strong interactions; plates 30°C, 3 days.

For assay [2], the target named is Rpl39, Gal4 DNA-binding domain fusion (S. cerevisiae) (UniProt P04650). The assay is described as above.
Assay [3] concerns the target Rpl42, Gal4 DNA-binding domain fusion (S. cerevisiae) (UniProt P0CX27). The assay is described as above.
The target of assay [4] is T2, Flag-Rps6 (S. cerevisiae) (UniProt P0CX37).
T2 sequence: T1 sequence
Briefly: pull-down; proteins co-expressed in E. coli; two-step affinity purification from the lysate, Ni-NTA agarose (300 mM imidazole elution) then Anti-FLAG M2 Affinity Gel (FLAG peptide elution); 50 mM Tris-HCl pH 7.5, 150 mM NaCl; Coomassie-stained gel.

For assay [5], the target named is T3, Tsr4-TAP (S. cerevisiae) (UniProt P25040).
T3 sequence: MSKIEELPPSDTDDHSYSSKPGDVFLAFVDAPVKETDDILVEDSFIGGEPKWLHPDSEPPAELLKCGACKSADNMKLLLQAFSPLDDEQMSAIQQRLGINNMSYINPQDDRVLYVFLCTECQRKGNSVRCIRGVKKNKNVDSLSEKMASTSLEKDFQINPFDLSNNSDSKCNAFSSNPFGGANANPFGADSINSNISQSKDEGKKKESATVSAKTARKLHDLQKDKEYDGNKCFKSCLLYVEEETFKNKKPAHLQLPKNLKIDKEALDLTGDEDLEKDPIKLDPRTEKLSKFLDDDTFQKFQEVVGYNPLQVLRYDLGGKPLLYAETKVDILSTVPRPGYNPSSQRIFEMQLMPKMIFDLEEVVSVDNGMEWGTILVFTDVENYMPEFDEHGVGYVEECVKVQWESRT
The assay can be described thus: co-IP; Tsr4-TAP purified from yeast lysate via IgG-Sepharose up to TEV elution; Western blotting of the eluate. Background: A western blot detects proteins with antibodies after separation by electrophoresis.

The target of assay [6] is T4, Nap1, Gal4 activation domain fusion (full-length) (S. cerevisiae) (UniProt P25293).
T4 sequence: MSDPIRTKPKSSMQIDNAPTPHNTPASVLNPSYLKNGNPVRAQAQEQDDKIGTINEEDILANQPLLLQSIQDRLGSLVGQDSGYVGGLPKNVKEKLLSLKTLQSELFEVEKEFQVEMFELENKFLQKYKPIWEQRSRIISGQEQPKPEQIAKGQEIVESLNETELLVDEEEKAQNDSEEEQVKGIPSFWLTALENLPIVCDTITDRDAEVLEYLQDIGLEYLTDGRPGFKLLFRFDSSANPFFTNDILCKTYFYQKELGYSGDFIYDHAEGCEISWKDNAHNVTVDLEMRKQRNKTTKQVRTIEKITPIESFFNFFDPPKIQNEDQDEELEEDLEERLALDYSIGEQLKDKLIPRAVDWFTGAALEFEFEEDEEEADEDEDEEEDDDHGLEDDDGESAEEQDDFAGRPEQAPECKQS
Briefly: two-hybrid; competition: PJ69-4A carrying high-copy URA3 plasmid pADH195-RPS6A or empty YEplac195, co-transformed with bait and prey plasmids; media additionally lacking uracil.

In assay [7] the target is T5, Nap1-TAP (S. cerevisiae) (UniProt P25293).
T5 sequence: T4 sequence
The assay can be described thus: co-IP; Nap1-TAP Rps6a-Flag split purification from yeast lysate: IgG Sepharose, TEV elution, then Calmodulin Sepharose or Anti-FLAG M2 Affinity Gel; Western blotting of eluates.

The target in assay [8] is T6, Rps2-His6 (S. cerevisiae) (UniProt P25443).
T6 sequence: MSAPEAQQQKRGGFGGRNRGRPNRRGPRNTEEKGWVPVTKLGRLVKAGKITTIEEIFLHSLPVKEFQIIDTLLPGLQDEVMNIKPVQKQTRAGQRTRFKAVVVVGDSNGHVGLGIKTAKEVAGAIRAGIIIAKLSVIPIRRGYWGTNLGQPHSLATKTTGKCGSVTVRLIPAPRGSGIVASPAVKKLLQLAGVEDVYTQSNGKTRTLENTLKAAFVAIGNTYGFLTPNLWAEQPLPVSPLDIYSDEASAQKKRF
Briefly: pull-down; proteins co-expressed in E. coli; two-step affinity purification from the lysate, Ni-NTA agarose (300 mM imidazole elution) then Anti-FLAG M2 Affinity Gel (FLAG peptide elution); 50 mM Tris-HCl pH 7.5, 150 mM NaCl; Coomassie-stained gel.

The target of assay [9] is T7, Rps2, Gal4 DNA-binding domain fusion (S. cerevisiae) (UniProt P25443).
T7 sequence: T6 sequence
Briefly: two-hybrid; reporter strain PJ69-4A; bait fused to Gal4 DNA-binding domain (c-Myc), prey fused to Gal4 activation domain (HA); HIS3 reporter for weak, ADE2 reporter for strong interactions; plates 30°C, 3 days.

B1: Nap1 residues 1–365, Gal4 activation domain fusion (domain or fragment, UniProt P25293 1-365)
chain: MSDPIRTKPKSSMQIDNAPTPHNTPASVLNPSYLKNGNPVRAQAQEQDDKIGTINEEDILANQPLLLQSIQDRLGSLVGQDSGYVGGLPKNVKEKLLSLKTLQSELFEVEKEFQVEMFELENKFLQKYKPIWEQRSRIISGQEQPKPEQIAKGQEIVESLNETELLVDEEEKAQNDSEEEQVKGIPSFWLTALENLPIVCDTITDRDAEVLEYLQDIGLEYLTDGRPGFKLLFRFDSSANPFFTNDILCKTYFYQKELGYSGDFIYDHAEGCEISWKDNAHNVTVDLEMRKQRNKTTKQVRTIEKITPIESFFNFFDPPKIQNEDQDEELEEDLEERLALDYSIGEQLKDKLIPRAVDWFTGAAL
Consider B1, for which the binding result in [1], in assay [2] and in [3] was “no binding” throughout.

B2: His6-Nap1 (protein, UniProt P25293 1-417)
chain: T4 sequence
Regarding B2, the binding result in assay [4] is recorded as “binds”.

B3: Rps2 (endogenous) (protein, UniProt P25443 1-254)
chain: T6 sequence
Turning to B3, the binding result in assay [5] is recorded as “binds”.

B4: Rps6 overexpressed from a multicopy plasmid (pADH195-RPS6A) (protein, UniProt P0CX37 1-236)
chain: T1 sequence
With B4, in assay [6], the binding result was “binds”.

B5: Rps6a-Flag (protein, UniProt P0CX37 1-236)
chain: T1 sequence
On to B5, for which the binding entry in [7] was “binds”.

B6: Tsr4-Flag (protein, UniProt P25040 1-408)
chain: T3 sequence
For the molecule B6, the binding entry in [8] is listed as “binds”.

B7: Nap1 residues 75–417, Gal4 activation domain fusion (domain or fragment, UniProt P25293 75-417)
chain: GSLVGQDSGYVGGLPKNVKEKLLSLKTLQSELFEVEKEFQVEMFELENKFLQKYKPIWEQRSRIISGQEQPKPEQIAKGQEIVESLNETELLVDEEEKAQNDSEEEQVKGIPSFWLTALENLPIVCDTITDRDAEVLEYLQDIGLEYLTDGRPGFKLLFRFDSSANPFFTNDILCKTYFYQKELGYSGDFIYDHAEGCEISWKDNAHNVTVDLEMRKQRNKTTKQVRTIEKITPIESFFNFFDPPKIQNEDQDEELEEDLEERLALDYSIGEQLKDKLIPRAVDWFTGAALEFEFEEDEEEADEDEDEEEDDDHGLEDDDGESAEEQDDFAGRPEQAPECKQS
On to B7, for which the binding entry in [1], in [2] and in [3] was “binds” in each case.

B8: Tsr4 ΔN19 (residues 20–408), Gal4 activation domain fusion (domain or fragment, UniProt P25040 20-408)
chain: KPGDVFLAFVDAPVKETDDILVEDSFIGGEPKWLHPDSEPPAELLKCGACKSADNMKLLLQAFSPLDDEQMSAIQQRLGINNMSYINPQDDRVLYVFLCTECQRKGNSVRCIRGVKKNKNVDSLSEKMASTSLEKDFQINPFDLSNNSDSKCNAFSSNPFGGANANPFGADSINSNISQSKDEGKKKESATVSAKTARKLHDLQKDKEYDGNKCFKSCLLYVEEETFKNKKPAHLQLPKNLKIDKEALDLTGDEDLEKDPIKLDPRTEKLSKFLDDDTFQKFQEVVGYNPLQVLRYDLGGKPLLYAETKVDILSTVPRPGYNPSSQRIFEMQLMPKMIFDLEEVVSVDNGMEWGTILVFTDVENYMPEFDEHGVGYVEECVKVQWESRT
On to B8, for which, in assay [9], the binding entry is recorded as “binds”.

B9: Tsr4 1–400, Gal4 activation domain fusion (domain or fragment, UniProt P25040 1-400)
chain: MSKIEELPPSDTDDHSYSSKPGDVFLAFVDAPVKETDDILVEDSFIGGEPKWLHPDSEPPAELLKCGACKSADNMKLLLQAFSPLDDEQMSAIQQRLGINNMSYINPQDDRVLYVFLCTECQRKGNSVRCIRGVKKNKNVDSLSEKMASTSLEKDFQINPFDLSNNSDSKCNAFSSNPFGGANANPFGADSINSNISQSKDEGKKKESATVSAKTARKLHDLQKDKEYDGNKCFKSCLLYVEEETFKNKKPAHLQLPKNLKIDKEALDLTGDEDLEKDPIKLDPRTEKLSKFLDDDTFQKFQEVVGYNPLQVLRYDLGGKPLLYAETKVDILSTVPRPGYNPSSQRIFEMQLMPKMIFDLEEVVSVDNGMEWGTILVFTDVENYMPEFDEHGVGYVEECV
As to B9, the binding result in [9] is “no binding”.

B10: Tsr4 ΔN40 (residues 41–408), Gal4 activation domain fusion (domain or fragment, UniProt P25040 41-408)
chain: VEDSFIGGEPKWLHPDSEPPAELLKCGACKSADNMKLLLQAFSPLDDEQMSAIQQRLGINNMSYINPQDDRVLYVFLCTECQRKGNSVRCIRGVKKNKNVDSLSEKMASTSLEKDFQINPFDLSNNSDSKCNAFSSNPFGGANANPFGADSINSNISQSKDEGKKKESATVSAKTARKLHDLQKDKEYDGNKCFKSCLLYVEEETFKNKKPAHLQLPKNLKIDKEALDLTGDEDLEKDPIKLDPRTEKLSKFLDDDTFQKFQEVVGYNPLQVLRYDLGGKPLLYAETKVDILSTVPRPGYNPSSQRIFEMQLMPKMIFDLEEVVSVDNGMEWGTILVFTDVENYMPEFDEHGVGYVEECVKVQWESRT
B10: the binding result in assay [9] is listed as “no binding”.
